# Data published in PubChem BioAssay AID1476 (National Center for Advancing Translational Sciences (NCATS), 2009).
# Among all 200,000 compounds or so, about 4,500 (2.2%) were called active. This list was built around the results that the source calls inconclusive (neither active nor inactive); the mix of calls is not that of the screen. Calls come from the whole dose curve; as a rule, active = well fitted inhibition curve with a large enough effect; inconclusive = small, poorly fitted or top-dose-only effect, or effect the other way; inactive = flat fitted curve, though single readings scatter. Potencies of inconclusive entries are doubtful fits and often do not repeat.
# Molecular target: Cruzipain (Trypanosoma cruzi) (UniProt P25779)
# Assay: qHTS Assay for Promiscuous and Specific Inhibitors of Cruzain (without detergent); note: nearly all actives have a fitted effect of over 40% in size;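 for max response, negative = inhibition: plate controls were enzyme without inhibitor for no effect and buffer without enzyme for full effect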
# Details: purified cruzain, Z-FR-AMC fluorescence, no detergent
# In short: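 Detergent-free condition (0.00005% Triton X-100) in acetate buffer pH 5.5 with DTT. 1.5 nM enzyme and compound were pre-mixed 15 min, then 2 uM Z-FR-AMC substrate added; reaction progress from fluorescence change between first and third reads (60 s).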
# Potency is the fitted concentration of half-maximal effect; tags give direction and shape of the fitted curve.
# Chain of UniProt P25779 (P25779 whole entry, looked up): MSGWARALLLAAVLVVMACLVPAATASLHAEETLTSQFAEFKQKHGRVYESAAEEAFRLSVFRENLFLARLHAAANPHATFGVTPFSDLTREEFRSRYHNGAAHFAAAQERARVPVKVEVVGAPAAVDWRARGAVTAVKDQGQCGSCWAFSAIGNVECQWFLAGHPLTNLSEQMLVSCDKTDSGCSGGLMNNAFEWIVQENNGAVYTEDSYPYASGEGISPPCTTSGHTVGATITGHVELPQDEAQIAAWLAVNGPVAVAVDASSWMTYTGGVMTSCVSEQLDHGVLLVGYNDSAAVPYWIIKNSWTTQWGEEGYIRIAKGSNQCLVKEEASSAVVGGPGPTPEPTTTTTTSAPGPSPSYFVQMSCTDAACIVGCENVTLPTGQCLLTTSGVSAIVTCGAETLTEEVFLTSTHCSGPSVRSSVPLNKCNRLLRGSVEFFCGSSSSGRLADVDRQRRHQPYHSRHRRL
Compound,"max response, negative = inhibition",Potency
OC[C@@H]1[C@@H](c2ccc(Cl)cc2)C(c2ccccc2)=NN1c1ccccc1,inactive: -18.3%,–
O=C(CS(=O)(=O)c1ccc(Cl)cc1)Nc1nc2ccc(Br)cc2s1,–,active: 7.94 µM
Cc1cc(C)c(S(=O)(=O)N2CCN(C)CC2)c(C)c1,inactive: 11.6%,–
Cc1cc(C)cc(-n2c(SCC(=O)Nc3ccccc3F)nc3c(oc4ccccc43)c2=O)c1,–,"inconclusive: 39.8 µM [inhibitor, single point]"
Cc1ccc(C(=O)N2CCc3cc(CNC(=O)c4ccccc4F)ccc32)cc1,inactive: -5.13%,–
O=C1CNC(=S)N1c1nc(-c2ccccc2)cs1,–,"inconclusive: 39.8 µM [inhibitor, single point]"
CCCOc1ccc2cc(-c3ccccn3)c(=O)oc2c1,–,"inconclusive: 3.98 µM [activator, full curve]"
O=C(Nc1nc(-c2ccc3c(c2)OCCO3)cs1)c1ccc(S(=O)(=O)N2CCCCC2)cc1,–,active: 12.6 µM
Cc1ccc(NC(=O)N(Cc2c[nH]c3ccccc23)C2CCCCCC2)cc1C,inactive: 4.11%,–
CCOC(=O)c1cnc(NCc2ccccc2OC)c2ccccc12,inactive: -7.35%,–
COc1ccc(S(=O)(=O)N2CCCCC2)cc1C(=O)Nc1cccc(C(F)(F)F)c1,inactive: -1.32%,–
CCOC(=O)C1CCC(CN(Cc2ccc(Cl)cc2)S(=O)(=O)c2ccc(F)c(C(=O)Nc3cccc(F)c3)c2)CC1 (stereo not given),–,"inconclusive: 15.8 µM [inhibitor, partial curve, poor fit]"
CCn1c(=O)cc(SCC(=O)NCCc2ccc(Cl)cc2)c2ccccc21,–,"inconclusive: 39.8 µM [activator, single point]"
COc1cc(N(C(=O)Cc2cccs2)C(C(=O)NC2CCCCC2)c2cccc(OC)c2OC)ccc1-n1cnnn1 (stereo not given),–,"inconclusive: 31.6 µM [activator, single point]"
CCn1c(SCC(=O)N/N=C/C=C\c2ccccc2[N+](=O)[O-])nnc1-c1ccccc1,–,"inconclusive: 39.8 µM [inhibitor, single point]"
O=C(CNS(=O)(=O)c1ccccc1)OCC(=O)c1cccc([N+](=O)[O-])c1,–,"inconclusive: 39.8 µM [inhibitor, single point]"
CCc1ccc(/C=C2\SC(=S)N(CCCC(=O)Nc3nccs3)C2=O)cc1,–,"inconclusive: 31.6 µM [inhibitor, single point]"
CCn1cc(C(=O)NCc2ccccc2OC)c(=O)c2cc(S(=O)(=O)N3CCCCC3)ccc21,–,"inconclusive: 20 µM [activator, partial curve]"
CCC(C)c1ccc(-c2cc(C(=O)OCC(=O)Nc3cc(C)on3)c3ccccc3n2)cc1 (stereo not given),–,"inconclusive: 6.31 µM [inhibitor, partial curve]"
CCNC(=O)c1cc2c(=O)n3cccc(C)c3nc2n(CCc2ccccc2)c1=N,–,"inconclusive: 3.98 µM [activator, partial curve]"
C#CCOc1ccc(-c2nnc(Nc3cccc(C)c3)c3ccccc23)cc1,inactive: -3.38%,–
Nc1c(C(=O)OCC2CCCO2)c2nc3ccccc3nc2n1-c1ccc2c(c1)OCCO2 (stereo not given),–,"inconclusive: 31.6 µM [activator, single point]"

Compound,"max response, negative = inhibition",Potency
O=C(NCc1cn(-c2ccccc2)nc1-c1ccccc1)c1ccc([N+](=O)[O-])cc1,–,"inconclusive: 39.8 µM [inhibitor, single point]"
N#Cc1c(NC(=O)COC(=O)C2CC3C=CC2C3)oc(-c2ccccc2)c1-c1ccccc1 (stereo not given),–,active: 7.94 µM
CC(C)c1ccc(N2C(=O)CC(Sc3nc4ccccc4o3)C2=O)cc1 (stereo not given),–,"inconclusive: 15.8 µM [inhibitor, partial curve]"
Nc1c2c(nc3sc4c(c13)CCCCC4)CCCC2,–,"inconclusive: 25.1 µM [inhibitor, single point]"
O=C(CNC(=S)NC(=O)c1ccc(Cl)cc1)c1ccccc1,–,"inconclusive: 39.8 µM [inhibitor, single point]"
COc1ccccc1N1CCN(C(=O)c2ccc3c(Cl)c4c(nc3c2)CCCC4)CC1,–,"inconclusive: 31.6 µM [activator, single point]"
CN(C)C1C(=O)C(C(N)=O)C(=O)C2(O)C(=O)C3C(=O)c4c(O)cccc4C(C)(O)C3C(O)C12 (stereo not given),inactive: -7.44%,–
COc1ccc(-c2ccc(=O)n(CC(=O)Nc3ccc(C)cc3C)n2)cc1,inactive: -0.624%,–
CCOC(=O)c1c(-c2ccc(C)o2)csc1NC(=O)CSc1nnc(C)s1,–,"inconclusive: 39.8 µM [activator, single point]"
CS(=O)(=O)N(CC(=O)N1CCN(Cc2ccc3c(c2)OCO3)CC1)Cc1ccc(Cl)cc1,–,"inconclusive: 25.1 µM [activator, single point]"
COc1cccc([C@@H]2Oc3ccc(Br)cc3C[C@H]2OC(=O)N[C@H]2CCCc3ccccc32)c1,–,"inconclusive: 20 µM [inhibitor, single point]"
CC1CC(C)CN(S(=O)(=O)c2cccc(C(=O)OCCN3CCCC3=O)c2)C1 (stereo not given),–,"inconclusive: 39.8 µM [activator, single point]"
CCCCc1cc(=O)oc2cc(C)c(CN3CCCC3)c(O)c12,–,"inconclusive: 15.8 µM [inhibitor, partial curve]"
COc1ccc(OC)c(CCNc2ncnc3onc(-c4ccc(F)cc4)c23)c1,–,"inconclusive: 39.8 µM [activator, single point]"
Cc1ccc(N2C(=O)C3ON(c4ccccc4)C(c4ccncc4)C3C2=O)c(C)c1 (stereo not given),–,"inconclusive: 31.6 µM [activator, single point]"
Clc1ccc(N2CCN(c3ncnc4c3oc3ccccc34)CC2)cc1,inactive: 9.23%,–
Fc1cc(Br)ccc1Nc1c2c(nc3nc(-c4cccs4)nn13)CCCC2,inactive: -5.95%,–
CC(=O)c1ccc(OCC(=O)c2ccc(-c3ccccc3)cc2)cc1,–,"inconclusive: 39.8 µM [inhibitor, single point]"
O=C(CNC(=O)c1ccccc1)OC(C(=O)Nc1cc(C(F)(F)F)ccc1Cl)c1ccccc1 (stereo not given),–,active: 10 µM
CCCCCn1c(=O)[nH]c2cc(C(=O)N3CCN(c4cccc(C)c4)C(C)C3)ccc2c1=O (stereo not given),inactive: -0.879%,–
CC1(C)CCC2(C(=O)O)CC[C@]3(C)C(=CCC4[C@]5(C)CCC(O)C(C)(C)C5C(O)C[C@]43C)C2C1 (stereo not given in full),inactive: -13.3%,–
COc1cc(NC(=O)COC(=O)[C@@H]2CCCN2S(=O)(=O)c2ccc(Cl)cc2)cc(OC)c1OC,–,"inconclusive: 39.8 µM [activator, single point]"

Compound,"max response, negative = inhibition",Potency
Cc1nc2sc3c(NCc4ccco4)ncnc3c2c2c1COC(C)(C)C2,–,"inconclusive: 31.6 µM [activator, single point]"
Cc1ccc(Oc2ccc(NC(=O)CSc3n[nH]c(N)n3)cc2)cc1,–,"inconclusive: 39.8 µM [inhibitor, single point]"
Cc1ccc(OCCNC(=O)c2ccco2)cc1C,inactive: 7.13%,–
CN(C)c1ccc(/C=C2\SC(=O)N(CC(O)Cn3c4ccccc4c4ccccc43)C2=O)cc1 (stereo not given),–,active: 5.01 µM
O=C1OCCN1C(=O)[C@H]1[C@H](c2ccccc2)C(c2cccc(Cl)c2)=NN1c1ccccc1,–,"inconclusive: 28.2 µM [inhibitor, single point]"
CCOC(=O)C1CCN(C(=O)C2CCN(c3nc4ccc(OC)cc4s3)CC2)CC1,–,"inconclusive: 31.6 µM [activator, single point]"
Cc1ccccc1CCNC(=O)c1ccc2c(c1)c(C)c(C)n2Cc1ccccc1,–,active: 20 µM
C=CCn1c(SCC(=O)c2ccc(OC)cc2)nnc1-c1cc2cccc(OC)c2o1,–,"inconclusive: 25.1 µM [activator, partial curve]"
CN1CCN(C2=Nc3ccccc3Oc3ccc(Cl)cc32)CC1,inactive: -1.75% [middle of 4 runs],–
O=c1c(-c2ccc(F)cc2)coc2c3c(ccc12)OCCO3,–,"inconclusive: 39.8 µM [inhibitor, single point]"
CC(C)CN(CCCNC(=O)CN1C(=O)CSc2ccc(S(=O)(=O)N3CCOCC3)cc21)CC(C)C,–,"inconclusive: 15.8 µM [inhibitor, single point]"
CC(=O)Nc1ccc(Nc2cc(C)nc3c(-c4ccc(Cl)cc4)cnn23)cc1,–,"inconclusive: 25.1 µM [activator, single point]"
CC(C)n1c(=N)c(C(=O)NCCc2ccccc2)cc2c(=O)n3ccccc3nc21,–,"inconclusive: 39.8 µM [inhibitor, single point]"
N#Cc1c(SCC(=O)N2CCCCC2)nsc1SCC(=O)N1CCCCC1,inactive: 0.458%,–
Cc1ccc(CCN2CC(C(=O)N3CCN(c4ccc(F)cc4)CC3)CC2=O)cc1 (stereo not given),–,"inconclusive: 39.8 µM [activator, single point]"
COC(=O)CS(=O)(=O)c1nnc([C@H](Cc2ccccc2)NC(=O)OC(C)(C)C)o1,–,active: 10 µM
Cc1ccc(NC(=O)Cn2cc3c(n2)CCCCC3)cc1,inactive: -7.15%,–
COC(=O)c1c(Oc2ccc(C(C)=O)cc2)nnc(-c2ccccc2)c1-c1ccccc1,inactive: -11.4%,–
O=C(NCc1ccc(F)cc1)c1cc(-c2ccco2)on1,–,"inconclusive: 39.8 µM [inhibitor, single point]"
Cc1ccc(CCc2nnc(SCC(=O)Nc3ccccc3Cl)n2-c2ccccc2)o1,inactive: -13.4%,–
Oc1ccc(N=Cc2ccc(O)c(O)c2)cc1,–,"inconclusive: 12.6 µM [inhibitor, partial curve]"
